In the RNAGym collection of RNA variant scans (doi:10.7554/elife.90254):
The source gives no read counts; variants with many changes may rest on few reads.

B1: LINE1-mini (parent)
chain: GGCAGAGCUCAACACAGCGUGGCAAAGUGGCUGUGGCUAGACUGCC

Variants of: B1
Assay: self-cleavage, relative activity (ratio to wild type); higher = more cleavage; in vitro, sequencing; the parent is a self-cleaving ribozyme

Variant | self-cleavage
G7U C13G C23A C45A | 0.23
G7U C13G C31U G36U | 0.35
G7U C13G G17C U20A C45U | 0.04
G7U C13G G19U A41G | 0.15
G7U C13G G21A C37G C42U | 0.08
G7U C13G G30U | 0.18
G7U C13U A14U C37U | 0.03
G7U C13U A16U U38C G40C | 0.05
G7U C13U G22A A25C A39U | 0.51
G7U C13U G29U | 0.05
G7U C13U G44A | 0.17
G7U C13U U28C U43C | 0.12
G7U C13U U34A | 0.13
G7U C15A C31G | 0.12
G7U C15A C37A | 0.25
G7U C15A G29U | 0.1
G7U C15A U20A A26C C37A | 0.02
G7U C15G G17A C42A | 0.02
G7U C15G G19U | 0.03
G7U C15G G21C U38C | 0.05
G7U C15U A16U A25G G33A G44A | 0.06
G7U C15U C18A C31A G44C | 0.01
G7U C15U C23G G30A A39G | 0
G7U C15U G21A C23U A25C | 0.15

Variant | self-cleavage
G7U C15U G35U G36A | 0.03
G7U C15U U32G C37G | 0.19
G7U C15U U43A | 0.02
G7U C18A C23A A24C G29A G36U C37U | 0.01
G7U C18A C46U | 0.04
G7U C18A G19A A24C A39U | 0.02
G7U C18A G36A A39U | 0.42
G7U C18A U20G G30U G40C G44U | 0.03
G7U C18G A26U C31A C42G | 0.1
G7U C18G G19C G29U | 0.21
G7U C18G G30U G40U | 0.05
G7U C18G G33A | 0.02
G7U C18G U28G G35U A41G C42U C45U | 0.03
G7U C18U G30U G33A C45U | 0.12
G7U C23A A39U C42U | 0.04
G7U C23A C46A | 0.02
G7U C23A G27U | 0.05
G7U C23A G33C | 0.03
G7U C23A G35U | 0.04
G7U C23A U32G U34A U38A | 0.15
G7U C23G C31G C45A | 0.08
G7U C23G U32A G33U G36A | 0.05
G7U C23U A39C | 0.05
G7U C23U G30A G36U | 0.01

Variant | self-cleavage
G7U C23U G33C C42A U43A | 0.05
G7U C23U G36U A39C | 0.04
G7U C23U U34C | 0.1
G7U C23U U34C A39G | 0.03
G7U C31A U38G | 0.01
G7U C31G G33U | 0.07
G7U C31G G35C A39U G40A | 0.03
G7U C31G G35U A39U | 0.02
G7U C31G G40A | 0.03
G7U C31G U38G C46A | 0.01
G7U C31U C37A G40U | 0.02
G7U C31U G35A U38C A39G | 0.12
G7U C31U G35U | 0.01
G7U C31U G40A | 0.34
G7U C31U U32C | 0.12
G7U C31U U38C G40C | 0.1
G7U C37A C45A | 0.01
G7U C37U G44U | 0.31
G7U G17A A26C | 0.02
G7U G17A G22A C45U | 0.01
G7U G17A G27A | 0.05
G7U G17A G30U G33A | 0.05
G7U G17A G36U | 0.06
G7U G17A U28C | 0.02

Variant | self-cleavage
G7U G17A U28C A39G | 0.02
G7U G17C A39C | 0.16
G7U G17C G19C C37U | 0.01
G7U G17C G21U C31U | 0.01
G7U G17C G29A G35C | 0.29
G7U G17C G30C U43A C46G | 0.21
G7U G17C G40U A41C | 0.14
G7U G17C U32G | 0.1
G7U G17U A41U | 0.09
G7U G17U C18A G19A G40C | 0.22
G7U G17U C18A G21C C45A | 0.04
G7U G17U G21A G22U A25U | 0.06
G7U G17U G21A G33A G35C | 0.32
G7U G17U G40U | 0.15
G7U G17U U28C G29C G40A | 0.16
G7U G19A C37A | 0.01
G7U G19A G22A | 0.03
G7U G19A G22C | 0.03
G7U G19A G27U | 0.04
G7U G19A G29U | 0.04
G7U G19A G36A A39U | 0.06
G7U G19C C23A A25C | 0.01
G7U G19C G22U G27C C37A | 0.01
G7U G19C G36A | 0.12

Variant | self-cleavage
G7U G19C U28A G36C | 0.03
G7U G19U A26C G27U U28G U38C | 0.01
G7U G19U G21A G22A A24U | 0.04
G7U G19U G21U | 0.02
G7U G19U G29A G36C | 0.04
G7U G19U G30A U32A | 0.17
G7U G19U U20G A26U G29A A39U U43C C46U | 0.06
G7U G19U U28A U43A | 0.23
G7U G19U U38G A41G | 0
G7U G21A C23A | 0.03
G7U G21A C23U U28A G33A | 0.07
G7U G21A C45G | 0.45
G7U G21C C46U | 0.23
G7U G21C G33A | 0.08
G7U G21U G29C C31A G40C A41U C46A | 0.06
G7U G22A A26G U28A | 0.21
G7U G22A G29C | 0
G7U G22C G29C | 0.03
G7U G22C G36U | 0.04
G7U G22C U28A C37A A39G C46G | 0.02
G7U G22U A25U | 0.13
G7U G22U C23A G29A | 0.03
G7U G22U C23U A25G U28G G30U G40U | 0.01
G7U G22U C31U | 0.13

Variant | self-cleavage
G7U G22U G29C | 0.04
G7U G22U G30U C46U | 0.04
G7U G22U G44A | 0.03
G7U G22U U32A | 0.13
G7U G27A G33C | 0.13
G7U G27A G35A C46A | 0.11
G7U G27A G36A | 0.04
G7U G27A G36A U43A C46A | 0.94
G7U G27A U28A | 0.07
G7U G27A U32G G36C | 0.23
G7U G27C A41U | 0.06
G7U G27C G35U A39U | 0.21
G7U G27U G30U | 0.07
G7U G29A G36U A39C | 0
G7U G29U G30U | 0.12
G7U G29U G33A G36C | 0
G7U G29U G35A | 0.1
G7U G29U G35A C42U | 0.03
G7U G29U G36A | 0.09
G7U G29U G36C | 0.11
G7U G30U G40A | 0.47
G7U G33A U34A | 0.05
G7U G33A U34G | 0.03
G7U G33C G35A | 0.19

Variant | self-cleavage
G7U G33U G36C | 0.03
G7U G35C G36A G40C A41C C46A | 0.02
G7U G35C U38C G44U | 0.07
G7U G35U C42A | 0.09
G7U G36C G40A | 0
G7U U9A A12G C46G | 0.07
G7U U9A A12U C18G G33A G40C | 0.02
G7U U9A A14G G27C C45U | 0.01
G7U U9A C15A | 0.06
G7U U9A C15U | 0.07
G7U U9A G22U | 0.08
G7U U9A U28A | 0.08
G7U U9A U32C | 0.15
G7U U9C A11C | 0
G7U U9C A16G G19U A25U C31A | 0
G7U U9C C10A G17C U43C C46A | 0.05
G7U U9C C13U A14G | 0.02
G7U U9C G21U | 0.02
G7U U9C U38G | 0
G7U U9G A11G G17C | 0.02
G7U U9G A16G | 0.03
G7U U9G C10U G44C | 0.05
G7U U9G C13U C18A G30U | 0.15
